Test results reported in the supplement of paper PMC10126150.
Sequences with one replicate were seen in a single cluster, so their values are uncertain.

system: ATP; assay: switch fluorescence ratio, 500 uM ATP over buffer (Cy3 cluster intensity, sum of 5 cycles each) (fold (ratio)); higher = stronger signal-on switching upon ATP binding; sequences stand for … in TCGTCGGCAGCGTCAGATGTGTATAAGAGACAGTTTTTTTTTTTTTTTTTTTTTTTTT…TC; conditions: aptamer strand: ATP DNA aptamer (quencher-CACCTGGGGGAGTATTGCGGAGGAAGG + anchor), 100 nM annealed; ATP concentration: 500 uM; one replicate
Outline: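 Per cluster, summed Cy3 intensity from the target cycles was divided by that from the buffer cycles to give the fluorescence ratio, then averaged per switch-domain sequence. Clusters outside 100-1000 RFU were excluded. The Cy3-labelled switching-strand clusters, on a modified Illumina MiSeq flow-cell, were annealed to 100 nM quencher-labelled ATP aptamer and imaged in selection buffer, then after 15 min with 500 uM ATP at 22 °C, for five cycles with NaOH stripping and re-annealing between them.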
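Note: ATP exposure 15 min at 22 °C before imaging.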

Row | Sequence | switch fluorescence ratio
1 | TGGGTTCATG | 1.03
2 | TGGGTTCTTA | 1.03
3 | TGGTAAGTCT | 0.992
4 | TGGTACAAGT | 1.02
5 | TGGTACCAGC | 1.01
6 | TGGTACTGAC | 1.28
7 | TGGTAGAAGC | 1.01
8 | TGGTAGTATC | 0.991
9 | TGGTAGTGAG | 1.01
10 | TGGTATCGA | 0.983
11 | TGGTATGAA | 0.996
12 | TGGTATGAC | 0.997
13 | TGGTATGGAC | 1.02
14 | TGGTCCGC | 1.96
15 | TGGTCCGGTT | 1
16 | TGGTCGATG | 1.06
17 | TGGTCGCCTT | 0.996
18 | TGGTCGGCTC | 0.944
19 | TGGTCGGTTC | 0.982
20 | TGGTCGTCTA | 0.966
21 | TGGTCTATCG | 1
22 | TGGTGAAGT | 1.05
23 | TGGTGCGGCA | 1.01
24 | TGGTGCTCG | 0.956
25 | TGGTGCTGAT | 1.03
26 | TGGTGCTTTC | 0.987

Row | Sequence | switch fluorescence ratio
27 | TGGTGTACTC | 1.01
28 | TGGTGTTACG | 1
29 | TGGTTAACCG | 1.01
30 | TGGTTAGTGA | 0.995
31 | TGGTTCCTAC | 3.16
32 | TGGTTCTTGT | 0.938
33 | TGGTTGTGGC | 0.974
34 | TGGTTTAAGA | 0.979
35 | TGGTTTACGC | 0.944
36 | TGGTTTCCAC | 1.01
37 | TGGTTTGCGT | 0.986
38 | TGTAAAATGA | 1.01
39 | TGTAAATAGC | 1.02
40 | TGTAAGTATG | 0.996
41 | TGTAATCTAA | 0.991
42 | TGTAATTAGT | 1
43 | TGTACCGCTT | 1.07
44 | TGTACTTGAA | 1
45 | TGTAGACAGC | 0.973
46 | TGTAGCTCTC | 1.02
47 | TGTAGGAGTC | 1.02
48 | TGTAGGGCCA | 0.978
49 | TGTAGTTCGC | 0.967
50 | TGTAGTTCGT | 0.977
51 | TGTAGTTGGC | 1.02
52 | TGTATACGG | 1

Row | Sequence | switch fluorescence ratio
53 | TGTATAGGAG | 0.974
54 | TGTATCAAAG | 0.972
55 | TGTATCGCAG | 0.983
56 | TGTATGATTC | 1.04
57 | TGTATGCACT | 1.7
58 | TGTATGCATG | 1.01
59 | TGTATTACGA | 0.946
60 | TGTATTAGGG | 0.987
61 | TGTATTCAAA | 0.991
62 | TGTATTGATT | 0.938
63 | TGTATTGTGC | 0.97
64 | TGTCAACAGT | 0.992
65 | TGTCAC | 0.989
66 | TGTCACCCTC | 1.03
67 | TGTCACGTCA | 1.17
68 | TGTCAGCCG | 0.88
69 | TGTCAGGTCC | 0.992
70 | TGTCAGTTAG | 1.04
71 | TGTCATACAG | 0.996
72 | TGTCATCGGT | 1.01
73 | TGTCATGCCC | 1
74 | TGTCCCAAGA | 0.993
75 | TGTCCGTTTC | 0.986
76 | TGTCCTTGTG | 1.02
77 | TGTCG | 1.01
78 | TGTCGGAATT | 0.972

Row | Sequence | switch fluorescence ratio
79 | TGTCGGACGA | 0.957
80 | TGTCGGGGTC | 1
81 | TGTCGTACAC | 1.05
82 | TGTCGTAGAG | 1.04
83 | TGTCTACCCA | 1.06
84 | TGTCTACGCA | 1.7
85 | TGTCTCAGTT | 0.96
86 | TGTCTGAGTA | 1.02
87 | TGTCTGGTCA | 1
88 | TGTCTTAAAC | 1.01
89 | TGTCTTATAG | 0.982
90 | TGTCTTATGC | 0.993
91 | TGTCTTCCGT | 1.08
92 | TGTGAACGTT | 0.997
93 | TGTGACAGAC | 1.11
94 | TGTGACATTT | 1.04
95 | TGTGACCGGA | 0.935
96 | TGTGACCTCT | 1.02
97 | TGTGACTGG | 0.967
98 | TGTGAGATGT | 0.991
99 | TGTGATACAC | 1.05
100 | TGTGATCTAC | 1.05
101 | TGTGATTAAT | 1.02
102 | TGTGATTAGA | 1.01
103 | TGTGCAAGTT | 0.963
104 | TGTGCATGAA | 0.978

Row | Sequence | switch fluorescence ratio
105 | TGTGCCAAAC | 0.974
106 | TGTGCCTGG | 0.975
107 | TGTGCTAAAT | 0.972
108 | TGTGGCGGTA | 1.04
109 | TGTGGCGTGC | 1
110 | TGTGGCTGTT | 0.974
111 | TGTGGGATTA | 0.971
112 | TGTGGGCA | 0.999
113 | TGTGGGGACT | 0.97
114 | TGTGGTCACT | 1.02
115 | TGTGTAACGA | 0.983
116 | TGTGTCAACG | 0.968
117 | TGTGTCAGAA | 0.986
118 | TGTGTCGGTG | 1.02
119 | TGTGTCGT | 0.974
120 | TGTGTGCTTG | 0.978
121 | TGTGTGTTA | 1.01
122 | TGTGTTCAAC | 1.01
123 | TGTGTTCAG | 0.965
124 | TGTGTTCAGC | 0.981
125 | TGTTAAACCG | 1.11
126 | TGTTAAACTC | 0.977
127 | TGTTAATATA | 1.04
128 | TGTTACCCGG | 1.01
129 | TGTTACGATC | 1.02
130 | TGTTACTGCA | 1.14

Row | Sequence | switch fluorescence ratio
131 | TGTTACTGTG | 0.968
132 | TGTTAGAGAT | 0.966
133 | TGTTAGGGCC | 1.04
134 | TGTTATAAAG | 0.994
135 | TGTTCAAAAA | 0.993
136 | TGTTCAAAGT | 0.956
137 | TGTTCACCGG | 1.01
138 | TGTTCATAGT | 1.01
139 | TGTTCCACAC | 1
140 | TGTTCCGAGG | 1.13
141 | TGTTCCGTTT | 1.02
142 | TGTTCGGACT | 1
143 | TGTTCGTCAG | 0.997
144 | TGTTCGTCTA | 1.04
145 | TGTTCTACGG | 1.01
146 | TGTTCTCAAT | 1.38
147 | TGTTCTCTTG | 0.971
148 | TGTTCTGGGT | 0.952
149 | TGTTCTGTT | 0.945
150 | TGTTCTTAAT | 1
151 | TGTTCTTAGC | 1.01
152 | TGTTCTTC | 0.951
153 | TGTTGAAGTG | 0.957
154 | TGTTGAGTCT | 0.983
